Reference: PubChem BioAssay AID1347165 (National Center for Advancing Translational Sciences (NCATS), 2019)
Screen size: about 220,000 compounds; about 5,700 (2.6%) were called active. The shares of active, inactive and inconclusive entries below differ from those in the screen. The call rests on the fitted dose curve; in most records, active means well fitted inhibition curve with a large enough effect; inconclusive means small, poorly fitted or top-dose-only effect; inactive means no such curve, though single readings can be large or run the other way. Potencies beside an inconclusive call are fits to weak or partial responses and may not hold up.

Target: Lysine-specific demethylase 5B (Homo sapiens) (UniProt Q9UGL1)
Assay: Primary screen for KDM5B Histone Demethylases FDH-coupled qHTS; further: nearly all actives have a fitted effect of over 70% in size; on activity change, negative = inhibition: 0% is about no effect
Details: FDH-coupled NADH fluorescence (FDH is formaldehyde dehydrogenase); activity change, negative = inhibition: at 57.7 µM (top of the series) unless noted
Summary of the method: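 Here, H3K4me3 peptide (12.5 µM in substrate mix) is demethylated by KDM5BΔAP, 200 nM final, after 10 min compound exposure. Formaldehyde product is coupled through FDH (0.25 U/mL in mix) to NADH fluorescence; 30-min ΔRFU feeds dose-response curves.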
Potency means the concentration at half of the fitted maximal effect; tags describe the fitted curve by direction and shape.

Chain of UniProt Q9UGL1 (Q9UGL1 whole entry, looked up): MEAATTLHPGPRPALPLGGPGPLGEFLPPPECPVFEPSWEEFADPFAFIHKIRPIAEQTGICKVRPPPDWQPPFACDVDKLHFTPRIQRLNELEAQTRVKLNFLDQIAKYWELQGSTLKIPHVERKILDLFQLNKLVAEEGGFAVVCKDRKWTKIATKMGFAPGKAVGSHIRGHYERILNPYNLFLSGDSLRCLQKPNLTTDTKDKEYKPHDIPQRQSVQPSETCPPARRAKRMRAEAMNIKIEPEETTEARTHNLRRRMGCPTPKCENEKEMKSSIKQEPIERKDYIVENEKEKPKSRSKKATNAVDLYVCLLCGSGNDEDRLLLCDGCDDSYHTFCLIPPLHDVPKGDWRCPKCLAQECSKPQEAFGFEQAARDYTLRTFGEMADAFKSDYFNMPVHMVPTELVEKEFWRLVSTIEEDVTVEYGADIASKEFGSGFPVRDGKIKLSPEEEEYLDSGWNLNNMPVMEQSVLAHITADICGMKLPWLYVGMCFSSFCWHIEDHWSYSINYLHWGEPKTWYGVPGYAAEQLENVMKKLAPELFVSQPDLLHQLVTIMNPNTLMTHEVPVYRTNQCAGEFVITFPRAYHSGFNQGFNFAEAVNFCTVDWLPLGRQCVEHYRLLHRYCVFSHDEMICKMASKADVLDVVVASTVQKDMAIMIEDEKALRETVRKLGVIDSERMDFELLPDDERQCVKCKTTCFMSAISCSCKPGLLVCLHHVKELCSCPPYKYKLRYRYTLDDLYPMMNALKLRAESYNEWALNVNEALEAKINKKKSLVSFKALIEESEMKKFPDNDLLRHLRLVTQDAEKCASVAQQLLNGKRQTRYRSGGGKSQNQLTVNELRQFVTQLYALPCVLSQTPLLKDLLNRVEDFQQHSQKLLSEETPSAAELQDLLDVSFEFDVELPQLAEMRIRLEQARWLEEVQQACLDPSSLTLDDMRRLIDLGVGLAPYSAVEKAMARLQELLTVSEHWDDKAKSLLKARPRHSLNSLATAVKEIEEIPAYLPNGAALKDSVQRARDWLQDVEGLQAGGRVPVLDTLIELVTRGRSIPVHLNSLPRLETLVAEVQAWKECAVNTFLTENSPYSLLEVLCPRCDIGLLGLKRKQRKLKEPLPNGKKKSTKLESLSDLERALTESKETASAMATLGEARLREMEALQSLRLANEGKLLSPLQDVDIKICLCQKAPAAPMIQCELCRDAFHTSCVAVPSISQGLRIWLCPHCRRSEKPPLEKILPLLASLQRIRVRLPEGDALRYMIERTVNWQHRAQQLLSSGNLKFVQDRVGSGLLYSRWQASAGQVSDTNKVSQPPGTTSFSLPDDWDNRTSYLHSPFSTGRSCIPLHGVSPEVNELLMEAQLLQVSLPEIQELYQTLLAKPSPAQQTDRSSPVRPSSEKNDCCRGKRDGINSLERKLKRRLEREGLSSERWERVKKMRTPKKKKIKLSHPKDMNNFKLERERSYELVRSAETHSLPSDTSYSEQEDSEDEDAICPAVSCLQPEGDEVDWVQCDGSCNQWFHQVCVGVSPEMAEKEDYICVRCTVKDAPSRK

Question: With `CN(Cc1ccccc1)c1ccc(C(=O)N2CCC(CN3CCCC3=O)CC2)cn1` as the molecule, how does the Potency read?
Answer: inconclusive: 28.2 µM [inhibitor, partial curve, poor fit]

Question: With `Cc1ccc(CCCN2CCOc3ccc(C(=O)NCc4ccccc4F)cc3C2)o1` as the molecule, how does the Potency read?
Answer: inconclusive: 25.1 µM [inhibitor, single point]

Question: `Cc1ccc(C)c(Cn2c3ccccc3c3cnn(CC(=O)NC4CCCCCC4)c(=O)c32)c1` was tested. Which Potency did it give?
Answer: inconclusive: 17.8 µM [inhibitor, partial curve, poor fit]

Question: With `O=S(=O)(c1cccc(Cl)c1)n1c(/C=C/c2ccccc2Cl)nc2ccccc21` as the molecule, how does the Potency read?
Answer: inconclusive: 35.5 µM [inhibitor, partial curve, poor fit]

Question: With `Cc1c2cnn(-c3ccccc3)c(=O)c2c(C)n1CCCC(=O)Nc1cccc(F)c1` as the molecule, how does the Potency read?
Answer: inconclusive: 25.1 µM [inhibitor, partial curve, poor fit]

Question: `N#Cc1ccccc1CCC(=O)Nc1cccc(/C=C/c2ccccn2)c1` was tested. Which Potency did it give?
Answer: inconclusive: 20 µM [inhibitor, single point]

Question: For `O=C(O)CC(c1cccnc1)c1c[nH]c2ccccc12` (stereo not drawn), which “activity change, negative = inhibition” value is on record?
Answer: inactive: -2.66%

Question: `O=S1(=O)c2ccc(N3CCN(Cc4ccccc4F)CC3)cc2Oc2ccccc2CN1Cc1cn(Cc2ccc(Cl)cc2)nn1` was tested. Which Potency did it give?
Answer: inconclusive: 25.1 µM [inhibitor, partial curve, poor fit]

Question: How did the Potency turn out when `CNC(=O)c1ccc(OCc2coc(-c3cccc(F)c3)n2)cc1` was run?
Answer: inconclusive: 39.8 µM [inhibitor, single point]

Question: `S=C1NC2(CCCCC2)NN1c1ccc(Cl)cc1` was tested. Which Potency did it give?
Answer: inconclusive: 28.2 µM [inhibitor, single point]

Question: For `CC1=C[C@@H](CNC(=O)NC2CCCCC2)[C@H](C(C)C)C[C@H]1CC(=O)O`, which Potency is on record?
Answer: inconclusive: 56.2 µM [inhibitor, single point]

Question: `COc1ccccc1-c1[nH]nc2ncc(-c3ccc(C)cc3)nc12` was tested. Which Potency did it give?
Answer: inconclusive: 35.5 µM [inhibitor, partial curve, poor fit]

Question: How did the Potency turn out when `Cc1ccc2nc(C)cc(C(=O)OC(C)C(=O)Nc3cc(C)on3)c2c1` (stereo not drawn) was run?
Answer: inconclusive: 25.1 µM [inhibitor, partial curve, poor fit]

Question: `O=C(NCC1CC1)c1cccc(OC2CN(C3CCCCC3)C2)c1` was tested. Which “activity change, negative = inhibition” value did it give?
Answer: inactive: -21.9%

Question: `CCn1c(-c2ccc(O)c(OC)c2)nc2c1c(=O)[nH]c(=O)n2Cc1ccccc1` was tested. Which Potency did it give?
Answer: inconclusive: 28.2 µM [inhibitor, single point]

Question: For `CCNC(=O)C(C)(C)Oc1nn(Cc2cccc(Cl)c2)c2ccccc12`, which Potency is on record?
Answer: inconclusive: 39.8 µM [inhibitor, partial curve]

Question: With `CCCOc1ccc(Oc2ncccc2CNC(=O)Nc2ccccc2)cc1` as the molecule, how does the “activity change, negative = inhibition” value read?
Answer: inactive: -9.55%

Question: For `CCCn1nc(C)cc1CN(CC)C(=O)c1cc[nH]c1C1CCCNC1` (stereo not drawn), which Potency is on record?
Answer: inconclusive: 17.8 µM [inhibitor, partial curve, poor fit]

Question: `O=C(O)CC(c1ccncc1)c1c[nH]c2ccccc12` (stereo not drawn) was tested. Which Potency did it give?
Answer: inconclusive: 25.1 µM [inhibitor, partial curve, poor fit]

Question: With `COC(=O)CSc1nc2sc3c(c2c(=O)n1-c1ccccc1)C(C)CCC3` (stereo not drawn) as the molecule, how does the Potency read?
Answer: inconclusive: 35.5 µM [inhibitor, single point]

Question: How did the Potency turn out when `CC(C)Oc1ccc(C(=O)Nc2nnc3n2CCS3)cc1` was run?
Answer: inconclusive: 14.1 µM [inhibitor, partial curve, poor fit]

Question: Which Potency does the source give for `O=c1ccc(N2CCC(NS(=O)(=O)c3ccc(F)c(F)c3)CC2)nn1CC1CC1` here?
Answer: inconclusive: 39.8 µM [inhibitor, partial curve, poor fit]

Question: With `O=C(CSc1nc2ncccc2o1)Nc1ccc(Cl)cc1F` as the molecule, how does the Potency read?
Answer: inconclusive: 28.2 µM [inhibitor, single point]

Question: For `CN1C(=O)[C@@H]2C[C@@H](CN2Cc2ccnc3ccccc23)Oc2ccccc21`, which Potency is on record?
Answer: inconclusive: 39.8 µM [inhibitor, partial curve, poor fit]

Question: Which Potency does the source give for `COc1cc(C(=O)N2CCCN(c3cc(-c4ccc(C)c(C)c4)[nH]n3)CC2)cc(OC)c1OC` here?
Answer: inconclusive: 15.8 µM [inhibitor, partial curve, poor fit]

Question: Which Potency does the source give for `CCSc1nc2n(n1)C(c1cccnc1)C1=C(CC(C)(C)CC1=O)N2` (stereo not drawn) here?
Answer: inconclusive: 35.5 µM [inhibitor, partial curve, poor fit]

Question: `COc1ccccc1/C=C/C(=O)Oc1c(C)ccc(C)c1C` was tested. Which Potency did it give?
Answer: inconclusive: 39.8 µM [inhibitor, single point]

Question: With `COc1cccc(CN2CCc3c(cc(C(=O)Nc4cc(C)ccc4OC)n3C)C2)c1` as the molecule, how does the Potency read?
Answer: inconclusive: 25.1 µM [inhibitor, partial curve]

Question: `O=C(N[C@H]1CCN2C(=O)c3cc(-c4cccs4)ccc3NC(=O)[C@H]12)c1cccs1` was tested. Which Potency did it give?
Answer: active: 31.6 µM

Question: Which Potency does the source give for `CCN(CC)C1CCN(C(=O)c2cc(OC)ccc2OC2CCN(C(=O)C3CC3)CC2)C1` (stereo not drawn) here?
Answer: inconclusive: 39.8 µM [inhibitor, partial curve, poor fit]

Question: `COc1ccc(C)cc1-n1nnc(-c2nc(-c3cccs3)no2)c1N` was tested. Which “activity change, negative = inhibition” value did it give?
Answer: inactive: -2.89%

Question: With `CC(C)n1nc(C(=O)Nc2nc(-c3cccs3)cs2)c2ccccc2c1=O` as the molecule, how does the “activity change, negative = inhibition” value read?
Answer: inactive: 9.27%

Question: With `Cc1nc2ccc(Cl)cn2c1C(=O)NC1CCOC2(CCOCC2)C1` (stereo not drawn) as the molecule, how does the Potency read?
Answer: inconclusive: 11.2 µM [inhibitor, partial curve, poor fit]

Question: With `CCOC(=O)c1cc(-c2ccc(F)cc2)n(CCC(=O)Nc2cc(OC)cc(OC)c2)c1C` as the molecule, how does the Potency read?
Answer: inconclusive: 10 µM [inhibitor, partial curve, poor fit]

Question: Which Potency does the source give for `COc1ccc(CNC(=O)Cc2c(C)c3c(OC)cc(C)cc3oc2=O)cc1` here?
Answer: inconclusive: 8.91 µM [inhibitor, full curve, poor fit]

Question: Which “activity change, negative = inhibition” value does the source give for `Cc1cc(C)cc(NC(=O)COC(=O)c2cccc(S(=O)(=O)N3CCc4ccccc43)c2)c1` here?
Answer: inactive: -11%

Question: How did the Potency turn out when `Cc1ccccc1-c1nc2ccc(NC(=O)C3CC3)cc2o1` was run?
Answer: inconclusive: 20 µM [inhibitor, partial curve, poor fit]

Question: Which Potency does the source give for `CCc1cccc2cc(C(=O)O)[nH]c12` here?
Answer: inconclusive: 39.8 µM [inhibitor, single point]

Question: Which “activity change, negative = inhibition” value does the source give for `CN(C)C(=O)CN1CCN(C(C(=O)O)c2c[nH]c3ccc(OCC#N)cc23)CC1` (stereo not drawn) here?
Answer: inactive: -20.3%

Question: For `Cn1cc(CN2CCNc3cc(-c4ccccc4)ncc3C2)cn1`, which Potency is on record?
Answer: inconclusive: 39.8 µM [inhibitor, partial curve, poor fit]

Question: For `Cn1cccc1C(=O)N1CCC2(CC1)CN(C1CCC1)CC2CO` (stereo not drawn), which Potency is on record?
Answer: inconclusive: 14.1 µM [inhibitor, partial curve]

Question: Which Potency does the source give for `Cc1nnc(CN2CCC(N3CCCC(C(=O)NCCc4ccccc4)C3)CC2)o1` (stereo not drawn) here?
Answer: inconclusive: 15.8 µM [inhibitor, partial curve, poor fit]

Question: With `COc1ccccc1N1CCCc2ncc(C(=O)Nc3cccnc3)cc21` as the molecule, how does the “activity change, negative = inhibition” value read?
Answer: inactive: -28.4% [at 86.2 µM]

Question: With `CCC(=O)Oc1c(Sc2ccc(C)cc2)c(C)nn1-c1ccccc1` as the molecule, how does the Potency read?
Answer: inconclusive: 4.47 µM [inhibitor, partial curve, poor fit]

Question: Which “activity change, negative = inhibition” value does the source give for `CC(=O)N[C@@H](C(=O)O)C(C)C` here?
Answer: inactive: 8.58%

Question: For `Cc1ccc(-c2nc3cccc(C)n3c2Nc2ccc3c(c2)OCO3)o1`, which Potency is on record?
Answer: inconclusive: 28.2 µM [inhibitor, partial curve, poor fit]

Question: For `CCCCNC(=O)c1cc2cc(OCC)ccc2n1C`, which Potency is on record?
Answer: inconclusive: 3.16 µM [inhibitor, full curve, poor fit]

Question: How did the Potency turn out when `CC(Sc1nnc(COc2ccc(Cl)cc2)n1Cc1ccco1)C(=O)N1CCNC1=O` (stereo not drawn) was run?
Answer: inconclusive: 25.1 µM [inhibitor, partial curve, poor fit]

Question: With `CCc1cc(=O)n(CC(=O)Nc2cc(OC)ccc2OC)c(-c2ccccc2)n1` as the molecule, how does the Potency read?
Answer: inconclusive: 28.2 µM [inhibitor, single point]

Question: How did the “activity change, negative = inhibition” value turn out when `CCCNc1c(NC(=O)Nc2ccc(C)cc2)c(=O)oc2ccccc12` was run?
Answer: inactive: 19.4%

Question: `COc1cccc(CNC(=O)Cn2ncn3c(cc4ccccc43)c2=O)c1` was tested. Which Potency did it give?
Answer: inconclusive: 2.82 µM [inhibitor, full curve, poor fit]

Question: For `Cc1onc(-c2c(F)cccc2Cl)c1-c1nnc(-c2cccc3ccccc23)o1`, which Potency is on record?
Answer: inconclusive: 11.2 µM [inhibitor, partial curve, poor fit]

Question: With `Cc1oc(-c2ccccc2)nc1C(=O)NCc1ccc(F)cc1` as the molecule, how does the “activity change, negative = inhibition” value read?
Answer: inactive: -13.4%

Question: For `CC(C)c1ccc(CNC(=O)c2ccc(N3CCCC3)c(NC(=O)NCc3ccc(F)cc3)c2)cc1`, which “activity change, negative = inhibition” value is on record?
Answer: inactive: -17.5%

Question: With `O=C(COc1ccc2ccc(=O)oc2c1)N1CCCc2ccccc21` as the molecule, how does the Potency read?
Answer: inconclusive: 35.5 µM [inhibitor, single point]

Question: With `COc1ccc(-c2ccc3nc(-c4cccc(Br)c4)oc3c2)c(OC)c1OC` as the molecule, how does the “activity change, negative = inhibition” value read?
Answer: inactive: -8860%

Question: Which “activity change, negative = inhibition” value does the source give for `CCOc1ccc(/C=C(\C#N)C(=O)Nc2sc3c(c2C(=O)OC)CCC3)cc1OC` here?
Answer: inactive: -15.5%

Question: Which Potency does the source give for `COCCN(C)C(=O)c1ccc2c(c1)C1(CCN(C)C1)CN2CC1CC1` (stereo not drawn) here?
Answer: inconclusive: 35.5 µM [inhibitor, single point]

Question: For `CN(C)C(=O)c1ccc(-c2cc(NC3CCCC3)nc3[nH]ccc23)o1`, which Potency is on record?
Answer: inconclusive: 28.2 µM [inhibitor, partial curve, poor fit]

Question: `CC(=O)Nc1cc(C(=O)N(C)Cc2ccco2)c2ccc(C)nc2c1` was tested. Which Potency did it give?
Answer: inconclusive: 28.2 µM [inhibitor, partial curve, poor fit]

Question: Which “activity change, negative = inhibition” value does the source give for `COc1ccc(N2CCN(C(=O)CCCCn3c(=O)[nH]c4ccsc4c3=O)CC2)cc1` here?
Answer: inactive: -22.1%

Question: With `CC(C)N(CC(=O)NC(N)=O)Cc1ccccc1` as the molecule, how does the “activity change, negative = inhibition” value read?
Answer: inactive: 10.6%

Question: How did the Potency turn out when `CCOC(=O)c1ccc(N2C(=O)c3n[nH]c(-c4cccs4)c3C2c2cccc(O)c2)cc1` (stereo not drawn) was run?
Answer: inconclusive: 1.78 µM [inhibitor, partial curve, poor fit]
